This is one part of the list. For part of these data: At the low end of the ranking the order means little.

One assay addresses T1, RARa (Homo sapiens) (UniProt P10276).
T1 sequence: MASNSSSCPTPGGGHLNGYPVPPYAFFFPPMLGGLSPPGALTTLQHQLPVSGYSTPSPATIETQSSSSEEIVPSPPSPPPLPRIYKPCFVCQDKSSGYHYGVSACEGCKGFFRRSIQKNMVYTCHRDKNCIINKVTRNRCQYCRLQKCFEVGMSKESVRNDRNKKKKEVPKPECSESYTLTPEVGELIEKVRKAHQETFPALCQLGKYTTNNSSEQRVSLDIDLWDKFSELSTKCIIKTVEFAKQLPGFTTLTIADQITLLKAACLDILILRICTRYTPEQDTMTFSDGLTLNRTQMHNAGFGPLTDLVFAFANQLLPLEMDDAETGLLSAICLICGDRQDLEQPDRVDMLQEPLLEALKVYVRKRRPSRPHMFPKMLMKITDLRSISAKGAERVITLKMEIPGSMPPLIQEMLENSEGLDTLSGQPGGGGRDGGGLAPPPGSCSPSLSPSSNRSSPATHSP
The note with it: 270 nM, no RXRa, PBS pH 7.4, 2% milk, 0.02% Triton X-100, 1 mM DTT, BSA, 0.4 mg/ml salmon testes DNA; double strand, one strand shown.
Turning to “GCGCAGTGGGTCACTTGAGACCAGCCTGGGCAACGCGCGATTGACAGCGTAGAATGAAGG”, the binding signal (PBM z-score against 500 random probes) was -1.15. In turn, “GCAGATGGGAGAGTTCCCTTGATTCCTTTGTGGGAGGCGATTGACAGCGTAGAATGAAGG” yielded a binding signal (PBM z-score against 500 random probes) of 0.21. Still for that read-out and setting: to “GCACAGCAAAGAGGCCAGCATGGCTAGAGCAGATCAGCGATTGACAGCGTAGAATGAAGG” belongs -1.04. The same measure, in the same setting: with “GCTGTGTCACCATGAGCAATCCAACCAGGCATCCCAGCGATTGACAGCGTAGAATGAAGG” the figure was -0.02. Same read-out and setting: to “GCTATAGGAAGCAGGATGTTTCTTGAGAGTGTGGCCGCGATTGACAGCGTAGAATGAAGG” belongs -0.69; to “GCTGCTGACTTGCTGGTTAGAGGGAACACATTCCCAGCGATTGACAGCGTAGAATGAAGG”, -0.38. The sequence “GCCAGGAGTTCAAGACCAGCCTGGTCAACATGGTGAGCGATTGACAGCGTAGAATGAAGG” returned a binding signal (PBM z-score against 500 random probes) of -0.09. Still for that read-out and setting: to “GCCCAAGATCTTGCCACTGCACTCCAGCCTGGATGAGCGATTGACAGCGTAGAATGAAGG” belongs -0.3.

With “GCGAAGGAGTTCTTATCTGGCCAGTTCCCATCCTGTGCGATTGACAGCGTAGAATGAAGG”, the binding signal (PBM z-score against 500 random probes) is -0.54.

The next assay has as its system RARa:RXRa. The note with it: 270 nM : 90 nM RXRa, PBS pH 7.4, 2% milk, 0.02% Triton X-100, 1 mM DTT, BSA, 0.4 mg/ml salmon testes DNA; double strand, one strand shown.
In the case of “GCGCTATTAGTTGAAAGGGAAACCGAATGATTCTCGGCGATTGACAGCGTAGAATGAAGG”, the binding signal (PBM z-score against 500 random probes) was 0.2. Same read-out and setting: with “GCGCTCGCAGGCCATTTGGGTCACTCAATGACGGGCGCGATTGACAGCGTAGAATGAAGG” the figure was 0.49. Still for that read-out and setting: with “GCCTACCAAGGTGAACAAGGTAGTTGATTACTATTCGCGATTGACAGCGTAGAATGAAGG” the figure was 0.46. On the same count and under the same terms, to “GCTAGCCTAGGTCGTGCGGGCCAGTATAGTGTCGGCGCGATTGACAGCGTAGAATGAAGG” belongs -0.17; to “GCGGAACGAGGGCAAGTTGAGAGCAGAGTTTGATGGGCGATTGACAGCGTAGAATGAAGG”, 0.48; to “GCTGAATGAGGGTATAAGATCAGGGAACGTTGCAAAGCGATTGACAGCGTAGAATGAAGG”, 0.23.

On to “GCATCTCTTGGTAACCAAGTTCAGTGAATGCCGAACGCGATTGACAGCGTAGAATGAAGG”, for which the binding signal (PBM z-score against 500 random probes) was determined as 0.47. On the same count and under the same terms, with “GCAGTCAATGTTCAGGACGAGGTAACGTAAAGCACGGCGATTGACAGCGTAGAATGAAGG” the figure was 0.31; with “GCAGTCAAATTTCAGGACGAGGTAACGTAAAGCACGGCGATTGACAGCGTAGAATGAAGG”, 0.43. “GCACAGACAGGTGAGTGAAGGTAACTCACCTGGACGGCGATTGACAGCGTAGAATGAAGG” gave a binding signal (PBM z-score against 500 random probes) of 0.49. The same measure, in the same setting: with “GCACTATTAGTTGACTTTGGGCAACCGATACGACGCGCGATTGACAGCGTAGAATGAAGG” the figure was 0.48; with “GCTCTATGAGTTGATTAGGGCAACCGAAACAGCGGAGCGATTGACAGCGTAGAATGAAGG”, 0.49; with “GCCCTCGGAGGACAACAGGAGTTCAGAGCTGCCAGAGCGATTGACAGCGTAGAATGAAGG”, 0.37. Still for that read-out and setting: to “GCCCTACTGGGCCATCAGGACATTGATATCAACGTTGCGATTGACAGCGTAGAATGAAGG” belongs 0.49; to “GCTCATATAGATAAATGCTAGGTGAAAGTCCGATCTGCGATTGACAGCGTAGAATGAAGG”, 0.49; to “GCTAGCCTAGGGCAGATCGGGCCAGTATACGCTATAGCGATTGACAGCGTAGAATGAAGG”, 0.41. On the same count and under the same terms, to “GCCCGACTGGGGCCAGGTTACCATAACGCACAGCCAGCGATTGACAGCGTAGAATGAAGG” belongs 0.18.

Turning to “GCTCTATAAGTTGATTAGGGCAACCGAAACAGCGGAGCGATTGACAGCGTAGAATGAAGG”, the binding signal (PBM z-score against 500 random probes) came out at 0.49. The same measure, in the same setting: with “GCTCTTGTAGATCAGCAGGTTCAGAAAGCTGGCCAAGCGATTGACAGCGTAGAATGAAGG” the figure was 0.45; with “GCAGAATGTGGTTATACGTAGATCAGGGAAGAAAGTGCGATTGACAGCGTAGAATGAAGG”, 0.28; with “GCTCTGCTAGGTCAGTTGGTCAGCGAACGAGCTGCCGCGATTGACAGCGTAGAATGAAGG”, 0.46. The same measure, in the same setting: to “GCCCTGCTCGGTCAATGGTCAGCTAAAGCAGCTCGCGCGATTGACAGCGTAGAATGAAGG” belongs 0.25; to “GCTCATATCGGTAAATGCTAGGTGAAAGTCCGATCTGCGATTGACAGCGTAGAATGAAGG”, 0.46; to “GCATCTCTAGGTAAGACTCAGTTCAGTTAAGAACGCGCGATTGACAGCGTAGAATGAAGG”, 0.5. “GCTCGAGTAGGTTAGCCGGGGCATTCAGCCAACATAGCGATTGACAGCGTAGAATGAAGG” registered a binding signal (PBM z-score against 500 random probes) of 0.48. The same measure, in the same setting: with “GCTCTTGTAGATCGAGCAGGTTAAGAAAGCCTGAGTGCGATTGACAGCGTAGAATGAAGG” the figure was 0.5; with “GCCGAACGAGGGCATGAGTTGATAGCCAATGCCGATGCGATTGACAGCGTAGAATGAAGG”, 0.5; with “GCGTACCAAGGTGAGTAGGTCGTTGATGAGTAGGCGGCGATTGACAGCGTAGAATGAAGG”, 0.39. On the same count and under the same terms, to “GCCCGAGTATGTTATGGGGCATTCAGGCAACGGTGAGCGATTGACAGCGTAGAATGAAGG” belongs 0.39; to “GCGCTCGGAGGACAAGTTCAGAGCTTTGTCCGTAGAGCGATTGACAGCGTAGAATGAAGG”, 0.49.
